# Data published in the supplement of paper PMC8728848.
# This is one part of the list.
# B1: F17-L (Escherichia coli) (protein)
# chain: GPDDYVPSQIAVNTSTLPGVVIGPADAHTYPRVIGELAGTSNQYVFNGGAIALMRGKFTPALPKIGSITYTFHQGNSRDSSDFDIYDIGVSGLGIIIGMAGYWPATPLVPINSSGIYIDPVGANTNPNTYNGATASFGARLFVAFVATGRLPNGYITIPTRQLGTILLEAKRTSLNNKGLTAPVMLNGGRIQVQSQTHHHHHH
# Legend:
# Test in all cases: glycan array binding signal (z-score within array); higher = stronger binding
# Settings in all cases: glycan notation: IUPAC condensed, linker removed
# GlcA(b1-3)Gal = biological target: GlcA(b1-3)Gal
# In short: (§1)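 Glycan array data were curated from 3228 arrays in the Consortium for Functional Glycomics database and kept only where the protein sequence was available. Glycan names were converted to IUPAC-condensed notation, and columns mapping to the same glycan were averaged. The binding signal is a within-array Z-score, averaged across arrays of the same protein sequence at different concentrations or buffers and across linkers. Negative Z-scores can be read as non-binding.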
# GlcA(b1-3)GlcNAc = biological target: GlcA(b1-3)GlcNAc
# In short: as §1
# GlcA(b1-6)Gal = biological target: GlcA(b1-6)Gal
# In short: as §1
# [1] = biological target: GlcA3S(b1-3)Gal(b1-4)GlcNAc(b1-2)Man
# In short: as §1
# [2] = biological target: GlcA3S(b1-3)Gal(b1-4)GlcNAc(b1-3)Gal(b1-4)Glc
# In short: as §1
# [3] = biological target: GlcNAc(a1-3)Gal(b1-4)GlcNAc
# In short: as §1
# [4] = biological target: GlcNAc(a1-4)Gal(b1-3)GlcNAc
# In short: as §1
# [5] = biological target: GlcNAc(a1-4)Gal(b1-4)GalNAc
# In short: as §1
# [6] = biological target: GlcNAc(a1-4)Gal(b1-4)GlcNAc
# In short: as §1
# [7] = biological target: GlcNAc(a1-4)Gal(b1-4)GlcNAc(b1-3)Gal(b1-4)Glc
# In short: as §1
# [8] = biological target: GlcNAc(a1-4)Gal(b1-4)GlcNAc(b1-3)Gal(b1-4)GlcNAc
# In short: as §1
# [9] = biological target: GlcNAc(a1-4)Gal(b1-4)GlcNAc(b1-3)Gal(b1-4)GlcNAc(b1-3)Gal(b1-4)GlcNAc
# In short: as §1
# [10] = biological target: GlcNAc(a1-4)Gal(b1-4)GlcNAc(b1-3)Gal(b1-4)[Fuc(a1-3)]GlcNAc(b1-3)Gal(b1-4)[Fuc(a1-3)]GlcNAc
# In short: as §1
# [11] = biological target: GlcNAc(a1-6)Gal(b1-4)GlcNAc
# In short: as §1
# [12] = biological target: GlcNAc(b1-2)Gal(b1-3)GalNAc
# In short: as §1
# [13] = biological target: GlcNAc(b1-2)Man(a1-3)[GlcNAc(b1-2)Man(a1-6)]Man(b1-4)GlcNAc(b1-4)GlcNAc
# In short: as §1
# [14] = biological target: GlcNAc(b1-2)Man(a1-3)[GlcNAc(b1-2)Man(a1-6)]Man(b1-4)GlcNAc(b1-4)[Fuc(a1-6)]GlcNAc
# In short: as §1
# [15] = biological target: GlcNAc(b1-2)Man(a1-3)[GlcNAc(b1-4)][GlcNAc(b1-2)Man(a1-6)]Man(b1-4)GlcNAc(b1-4)GlcNAc
# In short: as §1
# [16] = biological target: GlcNAc(b1-2)Man(a1-3)[GlcNAc(b1-4)][GlcNAc(b1-2)Man(a1-6)]Man(b1-4)GlcNAc(b1-4)[Fuc(a1-6)]GlcNAc
# In short: as §1
# [17] = biological target: GlcNAc(b1-2)[GlcNAc(b1-4)]Man(a1-3)[GlcNAc(b1-2)Man(a1-6)]Man(b1-4)GlcNAc(b1-4)GlcNAc
# In short: as §1
# [18] = biological target: GlcNAc(b1-2)[GlcNAc(b1-4)]Man(a1-3)[GlcNAc(b1-4)][GlcNAc(b1-2)Man(a1-6)]Man(b1-4)GlcNAc(b1-4)GlcNAc
# In short: as §1
# [19] = biological target: GlcNAc(b1-2)[GlcNAc(b1-4)]Man(a1-3)[GlcNAc(b1-4)][GlcNAc(b1-2)[GlcNAc(b1-6)]Man(a1-6)]Man(b1-4)GlcNAc(b1-4)GlcNAc
# In short: as §1
# [20] = biological target: GlcNAc(b1-2)[GlcNAc(b1-4)]Man(a1-3)[GlcNAc(b1-4)][GlcNAc(b1-2)[GlcNAc(b1-6)]Man(a1-6)]Man(b1-4)GlcNAc(b1-4)[Fuc(a1-6)]GlcNAc
# In short: as §1
# [21] = biological target: GlcNAc(b1-2)[GlcNAc(b1-6)]Man(a1-6)[GlcNAc(b1-2)Man(a1-3)]Man(b1-4)GlcNAc(b1-4)GlcNAc
# In short: as §1
# [22] = biological target: GlcNAc(b1-2)[GlcNAc(b1-6)]Man(a1-6)[GlcNAc(b1-2)Man(a1-3)]Man(b1-4)GlcNAc(b1-4)[Fuc(a1-6)]GlcNAc
# In short: as §1
# [23] = biological target: GlcNAc(b1-2)[GlcNAc(b1-6)]Man(a1-6)[GlcNAc(b1-4)][GlcNAc(b1-2)Man(a1-3)]Man(b1-4)GlcNAc(b1-4)GlcNAc
# In short: as §1
# GlcNAc(b1-3)Fuc = biological target: GlcNAc(b1-3)Fuc
# In short: as §1
# GlcNAc(b1-3)Gal = biological target: GlcNAc(b1-3)Gal
# In short: as §1
# [24] = biological target: GlcNAc(b1-3)Gal(b1-3)GalNAc
# In short: as §1
# GlcNAc(b1-3)Gal(b1-4)Glc = biological target: GlcNAc(b1-3)Gal(b1-4)Glc
# In short: as §1
# [25] = biological target: GlcNAc(b1-3)Gal(b1-4)GlcNAc
# In short: as §1
# [26] = biological target: GlcNAc(b1-3)Gal(b1-4)GlcNAc(b1-2)Man(a1-3)[GlcNAc(b1-3)Gal(b1-4)GlcNAc(b1-2)Man(a1-6)]Man(b1-4)GlcNAc(b1-4)GlcNAc
# In short: as §1
# [27] = biological target: GlcNAc(b1-3)Gal(b1-4)GlcNAc(b1-2)Man(a1-3)[GlcNAc(b1-3)Gal(b1-4)GlcNAc(b1-2)Man(a1-6)]Man(b1-4)GlcNAc(b1-4)[Fuc(a1-6)]GlcNAc
# In short: as §1
# [28] = biological target: GlcNAc(b1-3)Gal(b1-4)GlcNAc(b1-2)[GlcNAc(b1-3)Gal(b1-4)GlcNAc(b1-6)]Man(a1-6)[GlcNAc(b1-3)Gal(b1-4)GlcNAc(b1-2)Man(a1-3)]Man(b1-4)GlcNAc(b1-4)GlcNAc
# In short: as §1
# [29] = biological target: GlcNAc(b1-3)Gal(b1-4)GlcNAc(b1-3)Gal(b1-4)GlcNAc
# In short: as §1
# [30] = biological target: GlcNAc(b1-3)Gal(b1-4)GlcNAc(b1-3)Gal(b1-4)GlcNAc(b1-2)Man(a1-3)[GlcNAc(b1-3)Gal(b1-4)GlcNAc(b1-3)Gal(b1-4)GlcNAc(b1-2)Man(a1-6)]Man(b1-4)GlcNAc(b1-4)GlcNAc
# In short: as §1
# [31] = biological target: GlcNAc(b1-3)Gal(b1-4)GlcNAc(b1-3)Gal(b1-4)GlcNAc(b1-2)Man(a1-3)[GlcNAc(b1-3)Gal(b1-4)GlcNAc(b1-3)Gal(b1-4)GlcNAc(b1-2)Man(a1-6)]Man(b1-4)GlcNAc(b1-4)[Fuc(a1-6)]GlcNAc
# In short: as §1
# [32] = biological target: GlcNAc(b1-3)Gal(b1-4)GlcNAc(b1-3)Gal(b1-4)GlcNAc(b1-2)[GlcNAc(b1-3)Gal(b1-4)GlcNAc(b1-3)Gal(b1-4)GlcNAc(b1-6)]Man(a1-6)[GlcNAc(b1-3)Gal(b1-4)GlcNAc(b1-3)Gal(b1-4)GlcNAc(b1-2)Man(a1-3)]Man(b1-4)GlcNAc(b1-4)[Fuc(a1-6)]GlcNAc
# In short: as §1
# [33] = biological target: GlcNAc(b1-3)Gal(b1-4)GlcNAc(b1-3)Gal(b1-4)GlcNAc(b1-3)Gal(b1-4)GlcNAc(b1-2)Man(a1-3)[GlcNAc(b1-3)Gal(b1-4)GlcNAc(b1-3)Gal(b1-4)GlcNAc(b1-3)Gal(b1-4)GlcNAc(b1-2)Man(a1-6)]Man(b1-4)GlcNAc(b1-4)GlcNAc
# In short: as §1
# [34] = biological target: GlcNAc(b1-3)Gal(b1-4)GlcNAc(b1-3)Gal(b1-4)GlcNAc(b1-3)Gal(b1-4)GlcNAc(b1-2)Man(a1-3)[GlcNAc(b1-3)Gal(b1-4)GlcNAc(b1-3)Gal(b1-4)GlcNAc(b1-3)Gal(b1-4)GlcNAc(b1-2)Man(a1-6)]Man(b1-4)GlcNAc(b1-4)[Fuc(a1-6)]GlcNAc
# In short: as §1
# [35] = biological target: GlcNAc(b1-3)Gal(b1-4)GlcNAc(b1-3)Gal(b1-4)GlcNAc(b1-3)Gal(b1-4)GlcNAc(b1-2)[GlcNAc(b1-3)Gal(b1-4)GlcNAc(b1-3)Gal(b1-4)GlcNAc(b1-3)Gal(b1-4)GlcNAc(b1-6)]Man(a1-6)[GlcNAc(b1-3)Gal(b1-4)GlcNAc(b1-3)Gal(b1-4)GlcNAc(b1-3)Gal(b1-4)GlcNAc(b1-2)Man(a1-3)]Man(b1-4)GlcNAc(b1-4)[Fuc(a1-6)]GlcNAc
# In short: as §1
# [36] = biological target: GlcNAc(b1-3)Gal(b1-4)GlcNAc(b1-3)Gal(b1-4)GlcNAc(b1-3)Gal(b1-4)GlcNAc(b1-3)Gal(b1-4)GlcNAc(b1-2)Man(a1-3)[GlcNAc(b1-3)Gal(b1-4)GlcNAc(b1-3)Gal(b1-4)GlcNAc(b1-3)Gal(b1-4)GlcNAc(b1-3)Gal(b1-4)GlcNAc(b1-2)Man(a1-6)]Man(b1-4)GlcNAc(b1-4)GlcNAc
# In short: as §1
# [37] = biological target: GlcNAc(b1-3)Gal(b1-4)GlcNAc(b1-3)Gal(b1-4)GlcNAc(b1-3)Gal(b1-4)GlcNAc(b1-3)Gal(b1-4)GlcNAc(b1-2)Man(a1-3)[GlcNAc(b1-3)Gal(b1-4)GlcNAc(b1-3)Gal(b1-4)GlcNAc(b1-3)Gal(b1-4)GlcNAc(b1-3)Gal(b1-4)GlcNAc(b1-2)Man(a1-6)]Man(b1-4)GlcNAc(b1-4)[Fuc(a1-6)]GlcNAc
# In short: as §1
# [38] = biological target: GlcNAc(b1-3)Gal(b1-4)GlcNAc(b1-3)Gal(b1-4)GlcNAc(b1-3)Gal(b1-4)GlcNAc(b1-3)Gal(b1-4)GlcNAc(b1-2)[GlcNAc(b1-3)Gal(b1-4)GlcNAc(b1-3)Gal(b1-4)GlcNAc(b1-3)Gal(b1-4)GlcNAc(b1-3)Gal(b1-4)GlcNAc(b1-6)]Man(a1-6)[GlcNAc(b1-3)Gal(b1-4)GlcNAc(b1-3)Gal(b1-4)GlcNAc(b1-3)Gal(b1-4)GlcNAc(b1-3)Gal(b1-4)GlcNAc(b1-2)Man(a1-3)]Man(b1-4)GlcNAc(b1-4)[Fuc(a1-6)]GlcNAc
# In short: as §1
# [39] = biological target: GlcNAc(b1-3)Gal(b1-4)GlcNAc(b1-3)Gal(b1-4)GlcNAc(b1-3)GalNAc
# In short: as §1
binder,measurement,setting,value
B1,glycan array binding signal (z-score),GlcA(b1-3)Gal,-0.203
same,glycan array binding signal (z-score),GlcA(b1-3)GlcNAc,1
same,glycan array binding signal (z-score),GlcA(b1-6)Gal,-0.156
same,glycan array binding signal (z-score),[1],-0.116
same,glycan array binding signal (z-score),[2],-0.116
same,glycan array binding signal (z-score),[3],0.441
same,glycan array binding signal (z-score),[4],-0.197
same,glycan array binding signal (z-score),[5],-0.174
same,glycan array binding signal (z-score),[6],-0.107
same,glycan array binding signal (z-score),[7],-0.113
same,glycan array binding signal (z-score),[8],0.012
same,glycan array binding signal (z-score),[9],-0.149
same,glycan array binding signal (z-score),[10],-0.101
same,glycan array binding signal (z-score),[11],-0.052
same,glycan array binding signal (z-score),[12],-0.02
same,glycan array binding signal (z-score),[13],0.13
same,glycan array binding signal (z-score),[14],0.147
same,glycan array binding signal (z-score),[15],-0.052
same,glycan array binding signal (z-score),[16],-0.112
same,glycan array binding signal (z-score),[17],-0.237
same,glycan array binding signal (z-score),[18],-0.096
same,glycan array binding signal (z-score),[19],-0.075
same,glycan array binding signal (z-score),[20],-0.096
same,glycan array binding signal (z-score),[21],-0.055
same,glycan array binding signal (z-score),[22],-0.082
same,glycan array binding signal (z-score),[23],-0.083
same,glycan array binding signal (z-score),GlcNAc(b1-3)Fuc,-0.033
same,glycan array binding signal (z-score),GlcNAc(b1-3)Gal,-0.05
same,glycan array binding signal (z-score),[24],-0.124
same,glycan array binding signal (z-score),GlcNAc(b1-3)Gal(b1-4)Glc,-0.078
same,glycan array binding signal (z-score),[25],-0.098
same,glycan array binding signal (z-score),[26],-0.106
same,glycan array binding signal (z-score),[27],-0.03
same,glycan array binding signal (z-score),[28],-0.012
same,glycan array binding signal (z-score),[29],-0.104
same,glycan array binding signal (z-score),[30],0.024
same,glycan array binding signal (z-score),[31],-0.02
same,glycan array binding signal (z-score),[32],0.025
same,glycan array binding signal (z-score),[33],-0.155
same,glycan array binding signal (z-score),[34],-0.016
same,glycan array binding signal (z-score),[35],-0.099
same,glycan array binding signal (z-score),[36],-0.107
same,glycan array binding signal (z-score),[37],-0.09
same,glycan array binding signal (z-score),[38],0.006
same,glycan array binding signal (z-score),[39],-0.232
